# Laboratory results as given in the supplement of paper PMC8728848.
# Some of the results follow.
# B1: Siglec-F (Mus musculus), Q920G3 (protein)
# chain: MRWAWLLPLLWAGCLATDGYSLSVTGSVTVQEGLCVFVACQVQYPNSKGPVFGYWFREGANIFSGSPVATNDPQRSVLKEAQGRFYLMGKENSHNCSLDIRDAQKIDTGTYFFRLDGSVKYSFQKSMLSVLVIALTEVPNIQVTSTLVSGNSTKLLCSVPWACEQGTPPIFSWMSSALTSLGHRTTLSSELNLTPRPQDNGTNLTCQVNLPGTGVTVERTQQLSVIYAPQKMTIRVSWGDDTGTKVLQSGASLQIQEGESLSLVCMADSNPPAVLSWERPTQKPFQLSTPAELQLPRAELEDQGKYICQAQNSQGAQTASVSLSIRSLLQLLGPSCSFEGQGLHCSCSSRAWPAPSLRWRLGEGVLEGNSSNGSFTVKSSSAGQWANSSLILSMEFSSNHRLSCEAWSDNRVQRATILLVSGPKVSQAGKSETSRGTVLGAIWGAGLMALLAVCLCLIFFTVKVLRKKSALKVAATKGNHLAKNPASTINSASITSSNIALGYPIQGHLNEPGSQTQKEQPPLATVPDTQKDEPELHYASLSFQGPMPPKPQNTEAMKSVYTEIKIHKC
# Assays:
# Assay in all cases: glycan array binding signal (z-score within array); higher = stronger binding
# Conditions in all cases: glycan notation: IUPAC condensed, linker removed
# [1] = biological target: Gal(b1-3)[Fuc(a1-4)]GlcNAc(b1-3)Gal(b1-3)[Fuc(a1-4)]GlcNAc
# How it was run: (§1)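 The binding signal is a Z-score computed within each array and averaged over linkers. Arrays of the same protein sequence at different concentrations or buffers were also averaged together. Data originate from 3228 arrays in the Consortium for Functional Glycomics database, kept only where the protein sequence was available.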
# [2] = biological target: Gal(b1-3)[Fuc(a1-4)]GlcNAc(b1-3)Gal(b1-4)GlcNAc
# How it was run: as §1
# [3] = biological target: Gal(b1-3)[Fuc(a1-4)]GlcNAc(b1-3)Gal(b1-4)[Fuc(a1-3)]GlcNAc
# How it was run: as §1
# [4] = biological target: Gal(b1-3)[Fuc(a1-4)]GlcNAc(b1-6)GalNAc
# How it was run: as §1
# [5] = biological target: Gal(b1-3)[GlcNAc(b1-6)]GalNAc
# How it was run: as §1
# [6] = biological target: Gal(b1-3)[Neu5Ac(a2-6)]GalNAc
# How it was run: as §1
# [7] = biological target: Gal(b1-3)[Neu5Ac(a2-6)]GlcNAc(b1-4)Gal(b1-4)Glc
# How it was run: as §1
# [8] = biological target: Gal(b1-3)[Neu5Ac(a2-6)]GlcNAc(b1-6)Gal(b1-4)Glc
# How it was run: as §1
# [9] = biological target: Gal(b1-3)[Neu5Ac(b2-6)]GalNAc
# How it was run: as §1
# Gal(b1-4)Gal = biological target: Gal(b1-4)Gal
# How it was run: as §1
# [10] = biological target: Gal(b1-4)GalNAc(a1-3)[Fuc(a1-2)]Gal(b1-4)GlcNAc
# How it was run: as §1
# [11] = biological target: Gal(b1-4)GalNAc(b1-3)[Fuc(a1-2)]Gal(b1-4)GlcNAc
# How it was run: as §1
# Gal(b1-4)Glc = biological target: Gal(b1-4)Glc
# How it was run: as §1
# Gal(b1-4)Glc6S = biological target: Gal(b1-4)Glc6S
# How it was run: as §1
# Gal(b1-4)GlcNAc = biological target: Gal(b1-4)GlcNAc
# How it was run: as §1
# [12] = biological target: Gal(b1-4)GlcNAc(a1-6)Gal(b1-4)GlcNAc
# How it was run: as §1
# Gal(b1-4)GlcNAc(b1-2)Man = biological target: Gal(b1-4)GlcNAc(b1-2)Man
# How it was run: as §1
# [13] = biological target: Gal(b1-4)GlcNAc(b1-2)Man(a1-3)Man(b1-4)GlcNAc(b1-4)GlcNAc
# How it was run: as §1
# [14] = biological target: Gal(b1-4)GlcNAc(b1-2)Man(a1-3)[Gal(b1-4)GlcNAc(b1-2)Man(a1-6)]Man(b1-4)GlcNAc(b1-4)GlcNAc
# How it was run: as §1
# [15] = biological target: Gal(b1-4)GlcNAc(b1-2)Man(a1-3)[Gal(b1-4)GlcNAc(b1-2)Man(a1-6)]Man(b1-4)GlcNAc(b1-4)[Fuc(a1-6)]GlcNAc
# How it was run: as §1
# [16] = biological target: Gal(b1-4)GlcNAc(b1-2)Man(a1-3)[Gal(b1-4)GlcNAc(b1-2)Man(a1-6)][Gal(b1-4)GlcNAc(b1-4)]Man(b1-4)GlcNAc(b1-4)[Fuc(a1-6)]GlcNAc
# How it was run: as §1
# [17] = biological target: Gal(b1-4)GlcNAc(b1-2)Man(a1-3)[Gal(b1-4)GlcNAc(b1-2)Man(a1-6)][GlcNAc(b1-4)]Man(b1-4)GlcNAc(b1-4)[Fuc(a1-6)]GlcNAc
# How it was run: as §1
# [18] = biological target: Gal(b1-4)GlcNAc(b1-2)Man(a1-3)[Gal(b1-4)GlcNAc(b1-2)][GlcNAc(b1-4)]Man(b1-4)GlcNAc(b1-4)GlcNAc
# How it was run: as §1
# [19] = biological target: Gal(b1-4)GlcNAc(b1-2)Man(a1-3)[GlcNAc(b1-2)Man(a1-6)]Man(b1-4)GlcNAc(b1-4)GlcNAc
# How it was run: as §1
# [20] = biological target: Gal(b1-4)GlcNAc(b1-2)Man(a1-3)[GlcNAc(b1-4)][Gal(b1-4)GlcNAc(b1-2)Man(a1-6)]Man(b1-4)GlcNAc(b1-4)GlcNAc
# How it was run: as §1
# [21] = biological target: Gal(b1-4)GlcNAc(b1-2)Man(a1-3)[Man(a1-6)]Man(b1-4)GlcNAc(b1-4)GlcNAc
# How it was run: as §1
# [22] = biological target: Gal(b1-4)GlcNAc(b1-2)Man(a1-6)Man(b1-4)GlcNAc(b1-4)GlcNAc
# How it was run: as §1
# [23] = biological target: Gal(b1-4)GlcNAc(b1-2)Man(a1-6)[GlcNAc(b1-2)Man(a1-3)]Man(b1-4)GlcNAc(b1-4)GlcNAc
# How it was run: as §1
# [24] = biological target: Gal(b1-4)GlcNAc(b1-2)Man(a1-6)[Man(a1-3)]Man(b1-4)GlcNAc(b1-4)GlcNAc
# How it was run: as §1
# [25] = biological target: Gal(b1-4)GlcNAc(b1-2)[Gal(b1-4)GlcNAc(b1-4)]Man(a1-3)[Gal(b1-4)GlcNAc(b1-2)Man(a1-6)]Man(b1-4)GlcNAc(b1-4)GlcNAc
# How it was run: as §1
binder,measurement,setting,value
B1,glycan array binding signal (z-score),[1],-0.103
same,glycan array binding signal (z-score),[2],-0.113
same,glycan array binding signal (z-score),[3],-0.109
same,glycan array binding signal (z-score),[4],-0.044
same,glycan array binding signal (z-score),[5],-0.096
same,glycan array binding signal (z-score),[6],-0.119
same,glycan array binding signal (z-score),[7],-0.13
same,glycan array binding signal (z-score),[8],-0.091
same,glycan array binding signal (z-score),[9],-0.129
same,glycan array binding signal (z-score),Gal(b1-4)Gal,-0.11
same,glycan array binding signal (z-score),[10],-0.124
same,glycan array binding signal (z-score),[11],-0.126
same,glycan array binding signal (z-score),Gal(b1-4)Glc,-0.123
same,glycan array binding signal (z-score),Gal(b1-4)Glc6S,-0.097
same,glycan array binding signal (z-score),Gal(b1-4)GlcNAc,-0.115
same,glycan array binding signal (z-score),[12],-0.115
same,glycan array binding signal (z-score),Gal(b1-4)GlcNAc(b1-2)Man,-0.112
same,glycan array binding signal (z-score),[13],-0.112
same,glycan array binding signal (z-score),[14],-0.118
same,glycan array binding signal (z-score),[15],-0.02
same,glycan array binding signal (z-score),[16],-0.095
same,glycan array binding signal (z-score),[17],-0.098
same,glycan array binding signal (z-score),[18],-0.09
same,glycan array binding signal (z-score),[19],-0.12
same,glycan array binding signal (z-score),[20],0.047
same,glycan array binding signal (z-score),[21],0.022
same,glycan array binding signal (z-score),[22],-0.051
same,glycan array binding signal (z-score),[23],-0.13
same,glycan array binding signal (z-score),[24],-0.116
same,glycan array binding signal (z-score),[25],-0.128
